This is one part of the list. Shown are side measurements of this screen, not its main read-out; they come without a call. The list favours compounds with an active or inconclusive main result.
Experiment: growth inhibition of WT strain, primary screen, mitochondrial fusion inhibitor project, WT and mutant strains, chemical genetic (AID 1362); note: tested in S. cerevisiae
Settings: mitochondrial fusion phenotypic screen, at 10 µM

Row | SMILES | inhibition
1 | COc1ccc(NC(=S)Nc2cc(-c3ccccc3)[nH]n2)cc1Cl | 40.9%
2 | O=C(O)c1ccccc1C(=O)c1ccc2c(c1)N(Cc1ccc(Cl)c(Cl)c1)C(=O)CO2 | 15.4%
3 | O=c1cc2c(nn1Cc1ccc(Cl)cc1Cl)-c1ccccc1CC2 | 6.72%
4 | CN(NS(=O)(=O)c1ccc(Br)cc1)c1nc(C(F)(F)F)nc2ccccc12 | 38.1%
5 | CCOc1ccccc1N1CCN(C(=S)NC(=O)C23CC4CC(CC(C4)C2)C3)CC1 | 5.92%
6 | Cc1ccc(-n2c(C)cc(C3=NNC(=NC4CC4)SC3)c2C)cc1C | 58.2%
7 | Cc1cccc(-n2cc(CN3CCN(Cc4nccn4C)CC3)c(-c3cccc(F)c3)n2)c1 | 73.4%
8 | CCC(=O)Nc1sc(Cc2ccccc2)c(C)c1C(N)=O | 69.7%
9 | Cc1nc(NC2=NCN(C3CCCCC3C)CN2)nc2ccccc12 (stereo unspecified) | 2.57%
10 | N#Cc1nc(Cc2cccc3ccccc23)oc1NCc1ccc(F)cc1 | 31.8%
11 | O=C(CNC(=S)N(Cc1ccccc1)Cc1ccccc1F)NCCc1ccccc1 | -7.82%
12 | Cc1ccc(-c2cc(-c3ccccc3Cl)[nH]n2)c(O)c1 | 67%
13 | NNC(=O)c1ccc(COc2cccc3ccccc23)cc1 | 41.9%
14 | Clc1ccccc1-c1ccc(CN2CCN(c3ccccc3)CC2)o1 | 55.2%
15 | O=C(Nc1ccccn1)c1cc(-c2cccc(Cl)c2)nc2ccccc12 | 45.8%
16 | COC(=O)[C@H](Cc1ccccc1)NC(=O)O[C@H]1C(=O)c2ccc(OC)cc2O[C@@H]1c1ccc2c(c1)OCO2 | -12.6%
17 | OCCN1CCN(c2ncnc3c2c(-c2ccccc2)cn3-c2ccc(Br)cc2)CC1 | 80.6%
18 | CC(=O)Oc1ccc(-c2cccc(C(=O)Oc3ccccc3)c2)cc1 | 39.8%
19 | O=C(c1cc(C2CC2)nc2ccc(Br)cc12)N1N=C(C(F)F)CC1(O)C(F)F (stereo unspecified) | 31.1%
20 | O=C(CSc1nc2cc(Cl)ccc2o1)NCCc1ccccc1 | -2.16%
21 | CSc1cccc(NC(=S)N(Cc2ccc(C)cc2)Cc2cccnc2)c1 | 25%
22 | CCN(CC)c1ccc(/C=N/Nc2nc3ccccc3[nH]2)cc1 | 10.9%
23 | CC/C(=C(/CC)c1ccc(O)cc1)c1ccc(O)cc1 | 23.8%

Row | SMILES | inhibition
24 | c1ccc(NCc2nc3ccccc3n2CCOc2ccccc2)cc1 | 45%
25 | Cc1[nH]c2ccccc2c1N=Nc1ccccc1F | 55.1%
26 | COc1ccc(-n2nc(C#N)c(Cl)cc2=O)cc1 | 58.5%
27 | Cc1cc(N/N=C/c2ccccc2O)nc(-c2ccccc2O)n1 | 66.1%
28 | CCCOP(=O)(OCCC)C(Nc1ccc(C(C)C)cc1)c1ccc([N+](=O)[O-])cc1 (stereo unspecified) | 9.01%
29 | O=C(c1ccccc1)N1N=C(c2ccccc2)CC1c1ccccc1O (stereo unspecified) | 49%
30 | CCCc1ccc(Oc2cn[nH]c2-c2ccc(O)c(C)c2O)cc1 | 81%
31 | CCc1c(C)sc2nc(C(C)C)nc(SCC(=O)N3CCc4ccccc4C3)c12 | 18.5%
32 | Cc1ccc(S(=O)(=O)Nc2ccccc2CNc2ccc(Br)cn2)cc1 | 22.7%
33 | COc1ccccc1/C=C\C=N\n1c(C2CCCCC2)n[nH]c1=S | 28.9%
34 | COc1ccccc1CNC(=S)Nc1cc(C)ccc1C | 33.4%
35 | Fc1ccc(N=C2NN=C(c3cc(F)ccc3F)CS2)cc1 | 63.5%
36 | CCCCCCCCC/C(=N\O)c1ccccn1 | 69.4%
37 | CCOC(=O)C1=C(CC)Nc2ccccc2N/C1=N\S(=O)(=O)c1ccc2ccccc2c1 | 9.71%
38 | CCc1cccc(CC)c1NC(=S)NCCc1c(C)[nH]c2ccc(C)cc12 | -5.9%
39 | CSc1nc2cc(Oc3cccc(Cl)c3Cl)c(Cl)cc2[nH]1 | 80.3%
40 | COc1ccc(Nc2nc(-c3ccccc3)c3ccccc3n2)cc1 | 8.25%
41 | Cc1ccc(NC(=O)c2ccc(Nc3c([N+](=O)[O-])cc([N+](=O)[O-])cc3[N+](=O)[O-])cc2)cc1 | 12%
42 | Cc1cc(NC(=S)N(Cc2ccc(Cl)cc2)Cc2ccc(C(=O)O)cc2)ccc1Cl | -12%
43 | Cc1cccc(C)c1NC(=S)N(Cc1ccccc1)Cc1cccs1 | 53.5%
44 | COc1cc(-c2nc3ccc4ccccc4c3c3c2CCC3)ccc1O | 55.8%
45 | CCN(CC)P(=O)(Nc1ccc(C)cc1Br)c1ccc(N(C)C)cc1NC(=O)c1ccco1 (stereo unspecified) | -10.5%
46 | C/C(=N\NC(=S)NCc1ccccc1)c1ccccc1 | 60.9%

Row | SMILES | inhibition
47 | Cc1cc(Nc2ccccc2)c2c([N+](=O)[O-])ccc(C)c2n1 | 62.3%
48 | Cc1ccc(Cn2nc3c(cc2=O)CCc2ccccc2-3)cc1 | 17.3%
49 | COc1ccccc1-n1cnc2sc(-c3ccccc3)cc2c1=O | 7.64%
50 | Cc1cccc(C(=O)O/N=C/c2ccc(Br)cc2)c1 | 20.9%
51 | COc1ccc(C2CC(C)(c3ccc(OC)cc3OC)Nc3ccccc3N2)c(OC)c1 (stereo unspecified) | 37.6%
52 | O=C(COc1c(F)c(F)c(C(F)(F)F)c(F)c1F)Nc1ccc(N2CCOCC2)c(Cl)c1 | 28.9%
53 | O=C(NC1=NCCS1)c1cc(-c2cccc(Br)c2)nc2ccccc12 | 69.9%
54 | CCCc1c(C)[nH]c2ccc(NC(C)=O)cc2c1=O | -17.1%
55 | COc1cccc(NC(=O)C(=S)NC2CCCCC2)c1 | 38.4%
56 | N=c1n(Cc2ccccc2)c2ccccc2n1CC(O)COc1ccc(Cl)cc1Cl (stereo unspecified) | 93.6%
57 | Cc1ccc(C)c(NC(=S)NCc2ccc3[nH]c4c(c3c2)CCCC4)c1 | 52.1%
58 | COc1ccc(C2C(C#N)=C(SC)NC3=C2C(=O)CC(C)(C)C3)cc1 (stereo unspecified) | 15.7%
59 | O=C(NCCCc1ccccc1)Nc1cccc(Cl)c1 | 55.6%
60 | Cc1ccc(S(=O)(=O)CNC(=S)c2cccc(Cl)c2)cc1 | 68%
61 | CNc1ccccc1C(C)(C)c1cc(-c2cccc(Br)c2)no1 | 29.2%
62 | Cc1ccc(C2CC(c3cccs3)=NN2S(=O)(=O)c2ccc(C)cc2)cc1 (stereo unspecified) | 45%
63 | COc1ccc(OC)c(NC(=S)NCCSc2ccc(C)cc2)c1 | 49.5%
64 | Cc1cccc(NC(=S)NC2CCCCC2)n1 | 49.6%
65 | O=S(=O)(NCCNc1ncc(C(F)(F)F)cc1Cl)C(F)(F)F | 76%
66 | O=C1NN=C(c2ccc(Br)cc2)CC1c1ccc(Cl)cc1 (stereo unspecified) | 20.8%
67 | Cc1nc(N)sc1N=Nc1ccc(Br)cc1 | 57.5%
68 | C/C(=N\Nc1ccccn1)c1ccc(C(C)C)cc1 | 41.2%
69 | CCCCn1nnc(NC(=S)NC(=O)c2ccc(-c3cccc(Cl)c3Cl)o2)n1 | 47.3%

Row | SMILES | inhibition
70 | Cc1ccc(CSc2ncnc3c2cnn3Cc2ccccc2)cc1 | 48.4%
71 | O=S(=O)(c1ccc(Br)s1)N1CCN(Cc2ccc3c(c2)OCO3)CC1 | 31.1%
72 | COc1ccc(NC(=O)N2c3ccccc3CC2C)cc1OC (stereo unspecified) | -3.03%
73 | Cc1cccc(N=Nc2c(C)nn(-c3ccccc3)c2N)c1C | 71.6%
74 | COc1ccc(Nc2nc(N3CCCCC3)c3ccccc3n2)cc1 | 59.9%
75 | COc1cccc(-c2csc(N3CCN(C(=O)Nc4ccc(Cl)cc4)CC3)n2)c1 | 32.4%
76 | Cc1cc(C(=O)Nc2nc(-c3ccccn3)cs2)ccc1[N+](=O)[O-] | 55.6%
77 | OCCN(Cc1ccccc1)CC(O)COc1ccc(-c2ccccc2)cc1 (stereo unspecified) | 56.6%
78 | Oc1ccc(C[C@@H]2CNC(=S)N2CCCCC2CCCCC2)cc1 | 82.3%
79 | CCCCNC(=O)C1CCN(S(=O)(=O)c2cnc[nH]2)CC1 | 3.31%
80 | CC(C)CNC(=O)c1oc2ccccc2c1COc1ccccc1 | 16.9%
81 | Cc1ccnc(NS(=O)(=O)c2ccc(N=CC3=C(O)CC(C)(C)CC3=O)cc2)n1 | 3.94%
82 | Cc1ccc(-n2cc(CN3CCN(Cc4nccn4C)CC3)c(-c3cccc(C)c3)n2)cc1 | 20%
83 | N/C(Cc1ccc([N+](=O)[O-])cc1)=N\OC(=O)c1ccc2ccccc2c1 | 74.9%
84 | CCOC(=O)c1cccc2c1-c1ccccc1/C2=N/O | 61.4%
85 | Cc1c(C)c2cc(Cl)c(O)c(CN3CCCC(C)C3)c2oc1=O (stereo unspecified) | 2.77%
86 | C=CCN(C(=O)c1cccc(S(=O)(=O)N2CCN(C)CC2)c1)c1nc(-c2ccccc2)cs1 | 11.8%
87 | O=C(CN1C(=O)CCC1=O)NNc1ccc2ccccc2c1 | 49.4%
88 | OC(COc1ccc2ccccc2c1Br)Cn1ccnc1 (stereo unspecified) | 50.9%
89 | O=C(NC(=S)NC1C2CC3CC(C2)CC1C3)C12CC3CC(CC(C3)C1)C2 (stereo unspecified) | 36.4%
90 | CCCCNC(=S)NCc1ccc2[nH]c3c(c2c1)CCCC3 | 43.2%
91 | N#CC(Sc1ccccn1)c1ccc(Cl)cc1 (stereo unspecified) | 45.2%
92 | CC(C)Cn1c(N)c(C(=O)COC(=O)CC23CC4CC(CC(C4)C2)C3)c(=O)n(C)c1=O | 36.8%

Row | SMILES | inhibition
93 | S=c1[nH]nc(-c2cc3ccccc3o2)n1Cc1ccccc1 | -37.4%
94 | CC1=C/C(=N\Nc2ccccc2[N+](=O)[O-])CC(C)(C)C1 | 37.5%
95 | COc1cc(CNCCO)cc(Br)c1OCc1ccccc1Cl | 19.1%
96 | COc1ccccc1N1CCN(C(=O)c2oc3cc(C)cc(C)c3c2C)CC1 | -2.7%
97 | FC(F)(F)c1cc(CCN2C(=S)NC[C@@H]2Cc2ccccc2)cc(C(F)(F)F)c1 | 24.3%
98 | Cc1nc2ccc(NC(=O)COc3ccccc3)cc2s1 | 73.1%
99 | CCOC(=O)C1=C(C)NC(=S)NC1c1ccc(-c2ccc(Cl)cc2)o1 (stereo unspecified) | 15.4%
100 | OCCNCc1ccc(OCc2ccc(Cl)cc2Cl)cc1 | 64.4%
101 | Cc1cc(NC(=O)c2ccccc2-c2ccccc2)ccc1Br | 56.1%
102 | S=c1nc(SCc2ccccc2)[nH]c2ccccc12 | 55%
103 | Cc1cccc(C)c1-n1nnnc1C1(Nc2ccccc2)CCCCC1 | 27.3%
104 | CCOC(=O)c1cnc(-c2ccccc2)nc1-c1ccccc1 | 1.86%
105 | Cc1cccc(N2CCN(C(=O)COc3ccc4c(c3)CCC4)CC2)c1C | 5.49%
106 | C=CCn1c(SCC(N)=O)nc(C)cc1=O | 16%
107 | Cc1ccc(S(=O)(=O)c2c(C)cc(C)nc2Oc2cccc(C)c2C)cc1 | 6.68%
108 | Cc1ccc(C(C)C)c(OC(=O)/C=C/c2ccccc2)c1 | 63.3%
109 | Cc1cc(NC(=O)c2sccc2C)n(-c2nc3ccccc3[nH]2)n1 | 75.1%
110 | CC(Oc1ccc(Cl)cc1Cl)c1nc(-c2ccc(NC(=O)c3ccco3)cc2)no1 (stereo unspecified) | 67.1%
111 | Fc1ccccc1C1c2cccn2CCN1C(=S)Nc1ccc(Br)cc1 (stereo unspecified) | 53.3%
